Where “and” joins values, the source holds several entries; their conditions need not be identical. Identical values can stand only once. Screen size: about 420,000 compounds; about 50,000 (12%) were called active. This list was built around the results that the source calls inconclusive (neither active nor inactive); the mix of calls is not that of the screen. Calls come from the whole dose curve; as a rule, active = well fitted inhibition curve with a large enough effect; inconclusive = small, poorly fitted or top-dose-only effect; inactive = flat fitted curve, though single readings scatter. Potencies beside an inconclusive call are fits to weak or partial responses and may not hold up.
test: qHTS for Inhibitors of human tyrosyl-DNA phosphodiesterase 1 (TDP1): qHTS in cells in presence of CPT; settings: chicken DT40 Tdp1-/-;hTDP1 cells + 20 nM CPT, ATP luminescence, 48 h; activity change, negative = growth inhibition: at 46.2 µM (top of the series) unless noted; note: nearly all actives have a fitted effect of over 55% in size
Outline: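 Chicken DT40 Tdp1-/- cells stably complemented with human TDP1 were seeded at 400 cells/well in medium containing 20 nM camptothecin, exposed to pin-transferred compounds, and grown at 37 °C for at least 48 hr. Viability was read as ATP luminescence.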
% is set by controls: 0 for no effect and ±100 for the full control effect; potency is the fitted concentration of half-maximal effect; tags give direction and shape of the fitted curve.

SMILES | Potency | activity change, negative = growth inhibition
O=C(Nc1cccc(C(F)(F)F)c1)c1ccc(Cn2cc(Br)cn2)o1 | inconclusive: 29.1 µM [inhibitor, single point] | 
CC(C)c1nc2sc3c(SCC(N)=O)ncnc3c2c2c1CCC2 | inactive | 
CSCCCNC(=O)c1ccc(OC2CCN(CCc3ccccc3)CC2)cc1 | inconclusive: 23.1 µM [inhibitor, single point] | 
O=C(CC1SC(N2CCCCC2)=NC1=O)Nc1cccc(C(=O)Nc2ncccc2O)c1 (stereo unspecified) | inconclusive: 32.6 µM [inhibitor, single point] | 
COc1ccccc1N1CCN(C(=O)c2cn(Cc3ccccc3)nc2-c2cccnc2)CC1 | inconclusive: 29.1 µM [inhibitor, single point] | 
CC1CCCC(C)N1C(=O)COC(=O)c1ccc([N+](=O)[O-])o1 (stereo unspecified) | inconclusive: 23.1 µM [inhibitor, single point] | 
CCC1CN(C(=O)N2CCC(C(=O)NCc3cccs3)CC2)c2cc(C)ccc2O1 (stereo unspecified) | active: 18.4 µM | 
Cc1ccc(NS(=O)(=O)c2ccc(-n3cccn3)cc2)c(Cl)c1 | inconclusive: 11.6 µM [inhibitor, partial curve] | 
O=S(=O)(c1ccc(Cl)cc1)N1CCN(C(=S)Nc2ccc(F)c(Cl)c2)CC1 | inconclusive: 29.1 µM [inhibitor, single point] | 
O=C1c2cccc(-c3ccc(C(F)(F)F)cc3)c2C2CCCCN12 (stereo unspecified) | inconclusive: 29.1 µM [inhibitor, single point] | 
CCOc1ccccc1NCc1cc(=O)oc2cc(C)c(O)cc12 | inconclusive: 20.6 µM [inhibitor, partial curve] | 
Cc1nn(Cc2ccc(F)cc2)c(C)c1NC(=O)c1cnn2c1NC(c1cccs1)CC2C(F)(F)F (stereo unspecified) | inconclusive: 29.1 µM [inhibitor, single point] | 
Cc1ccccc1Nc1c2c(nc3nncn13)CCC2 | inconclusive: 29.1 µM [inhibitor, single point] | 
CCN1CCN(C(=S)Nc2cc(S(=O)(=O)N(CC)CC)ccc2C)CC1 | inconclusive: 29.1 µM [inhibitor, single point] | 
O=C(CSc1n[nH]c(=O)n1C1CC1)NCc1ccccc1 | inactive | 
c1ccc(C2CNCCc3ccccc32)cc1 (stereo unspecified) | inconclusive: 23.1 µM [inhibitor, single point] | 
O=C(CC1(O)C(=O)N(CCc2ccccc2)c2ccc(Br)cc21)c1ccccc1O (stereo unspecified) | active: 5.17 µM | 
CC(OC(=O)C1CC1C)C(=O)Nc1ccc(Cl)cn1 (stereo unspecified) | inactive | 
COc1ccnc(-n2cccc2C=O)c1C#N | inactive | 
CCOc1ccc(-c2cc(C(=O)NCc3ccccc3)c3c(-c4ccc(CC)cc4)[nH]nc3n2)cc1 | active: 20.6 µM | 
COc1ccc(SCCN2CC[C@@H](C(C)(C)C)CCC2=O)cc1 | inconclusive: 20 µM [inhibitor, single point] and inconclusive: 29.1 µM [inhibitor, single point] | 
CC1(C)Cc2c(c(N3CCOCC3)nc3sc(C(=O)Nc4ccccc4)c(N)c23)CO1 | inconclusive: 23.1 µM [inhibitor, single point] | 
O=C(COc1ccc(F)cc1)Nc1ccc2nc(SCc3ccccc3)sc2c1 | inconclusive: 29.1 µM [inhibitor, single point] | 

SMILES | Potency | activity change, negative = growth inhibition
CC(=O)CC1(O)C(=O)Nc2ccccc21 (stereo unspecified) | inactive | 
COc1ccc(Cc2nnc(N/N=C/c3ccc(O)cc3O)[nH]c2=O)cc1OC | active: 5.8 µM | 
O=C(/C=C/c1ccc(OC(F)F)cc1)Nc1cccc(S(=O)(=O)NC2=NCCCCC2)c1 | inconclusive: 29.1 µM [inhibitor, single point] | 
O=C(CC1(O)C(=O)Nc2ccccc21)c1cccnc1 (stereo unspecified) | inactive | 
CC1=CC(=C(c2ccc(N)cc2)c2ccc(N)cc2)C=CC1=N | active: 2.24 µM and active: 2.66 µM | 
CC(C)(C)C(=O)Nc1c(C(=O)N2CCN(c3ccc(F)cc3)CC2)oc2ccccc12 | active: 18.4 µM | 
COc1ccc(NC(=O)Cc2csc(C)n2)cc1 | inactive | 
CCN(CC)CCCN(Cc1cc2cc3c(cc2[nH]c1=O)OCCO3)C(=O)Nc1ccccc1 | inconclusive: 29.1 µM [inhibitor, single point] | 
C=CCNC(=O)c1ccc(N(Cc2ccccc2)S(C)(=O)=O)cc1 | inactive | 
COC(=O)c1ccccc1NC(=O)CCn1c(=O)oc2ccccc21 | inactive | 
O=c1cc(-c2cccc(F)c2)oc2ccccc12 | inconclusive: 29.1 µM [inhibitor, single point] | 
COc1ccc(NC(=O)CSCC(=O)N(C)CC(=O)Nc2cccc3ccccc23)cc1 | inconclusive: 7.31 µM [inhibitor, full curve, poor fit] | 
CCCn1c2ccccc2c2cc(C(=O)O)ccc21 | inactive | 
CC(=O)c1ccc(NC(=O)NCCc2c[nH]c3ccccc23)cc1 | inconclusive: 23.1 µM [inhibitor, single point] | 
C[C@@H]1CCCCO[C@H](CN(C)Cc2ccc(Cl)c(Cl)c2)[C@@H](C)CN([C@H](C)CO)C(=O)c2cc(N(C)C)ccc2O1 | active: 18.4 µM | 
Cc1ccc(-n2c(C)cc(/C([O-])=C(/C(=S)Nc3ccc(F)c(Cl)c3)[n+]3ccccc3)c2C)cc1 | active: 23.1 µM | 
Cc1ccc(-c2noc(CN3CCN(C(c4ccccc4)c4ccccc4)CC3)n2)cc1 |  | inconclusive: -31.5% [inhibitor]
CC(C)C[C@H]1CN(CCCC[C@H]2CNC(=O)C(=O)N2CC2CCCCC2)C(=O)C(=O)N1CCc1ccccc1 | inconclusive: 29.1 µM [inhibitor, single point] | 
COc1ccc(-c2c[n+]3c(n2-c2ccccc2)SCC3)cc1OC | inactive | 
Oc1ccc(CCNCCCCCCNCCc2ccccc2)cc1O | inconclusive: 33.5 µM [inhibitor, single point] | 
O=C1CSc2ccc(S(=O)(=O)NCc3ccccc3)cc2N1 | inactive | 
Cc1cccc(C)c1NC(=O)c1ccc(N2CCCC2=O)cc1 | inactive | 
Cc1cccc2cc(C3CC(c4ccco4)=NN3C(=O)CCC(=O)O)c(Cl)nc12 (stereo unspecified) | inconclusive: 29.1 µM [inhibitor, single point] | 
